Experimental data reported in PubChem BioAssay AID488969 (Vanderbilt High Throughput Screening Facility, 2010).
In all, about 110,000 compounds were measured (“z-score”: median about -0.1, highest 2% from about 2 on). Some of the results follow.

Molecular target: Metabotropic glutamate receptor 8 (Rattus norvegicus) (UniProt P70579)
Assay: mGluR8 Gi/Go-coupled signaling modulation – cell-based, rat, thallium flux, HTS, primary screen (AID 488969)
Conditions: HEK293 rat mGluR8, GIRK (G protein-gated inwardly rectifying potassium channel) thallium flux, FluoZin2; at 10 µM; stronger effect = higher value; submaximal glutamate (EC20) added with thallium

Chain of UniProt P70579 (P70579 whole entry, looked up): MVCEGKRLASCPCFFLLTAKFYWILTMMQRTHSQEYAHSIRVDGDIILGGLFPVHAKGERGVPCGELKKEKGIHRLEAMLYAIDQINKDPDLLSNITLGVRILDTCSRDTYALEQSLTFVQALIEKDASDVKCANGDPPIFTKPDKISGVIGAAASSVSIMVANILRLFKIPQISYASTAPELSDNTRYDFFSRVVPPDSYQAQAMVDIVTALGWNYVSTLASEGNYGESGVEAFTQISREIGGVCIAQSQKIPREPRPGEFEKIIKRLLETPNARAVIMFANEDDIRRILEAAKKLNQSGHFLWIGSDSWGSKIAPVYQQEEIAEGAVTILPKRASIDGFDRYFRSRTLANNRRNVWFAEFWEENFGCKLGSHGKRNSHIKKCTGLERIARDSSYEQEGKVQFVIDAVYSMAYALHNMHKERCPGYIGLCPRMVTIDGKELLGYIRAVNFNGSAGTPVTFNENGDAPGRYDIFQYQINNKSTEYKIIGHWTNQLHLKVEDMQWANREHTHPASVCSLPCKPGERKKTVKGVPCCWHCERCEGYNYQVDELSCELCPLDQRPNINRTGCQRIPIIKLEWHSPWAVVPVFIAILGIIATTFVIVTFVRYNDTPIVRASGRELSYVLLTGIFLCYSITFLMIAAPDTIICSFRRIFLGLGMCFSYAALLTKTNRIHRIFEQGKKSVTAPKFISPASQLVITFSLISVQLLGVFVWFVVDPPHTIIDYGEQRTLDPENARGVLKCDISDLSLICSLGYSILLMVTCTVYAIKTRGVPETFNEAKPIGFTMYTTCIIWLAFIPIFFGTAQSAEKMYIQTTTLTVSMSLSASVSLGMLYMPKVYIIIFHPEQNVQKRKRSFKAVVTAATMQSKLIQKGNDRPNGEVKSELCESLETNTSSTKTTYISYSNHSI

| Structure (SMILES) | z-score |
| --- | --- |
| COc1cc(/C=N/NC(=O)c2cccnc2)ccc1OS(=O)(=O)c1cc(C)ccc1C | 0.563 |
| Cc1cccc(NS(=O)(=O)c2ccc3c(c2)OCCO3)c1 | 2.76 |
| COCc1nnc(NC(=O)CSc2ccccc2)s1 | -0.188 |
| CCn1c(C)nc2cc(C(=O)N=Nc3c(O)[nH]c4ccccc34)ccc21 | 0.0669 |
| O=C(NCc1ccco1)c1cccc(NS(=O)(=O)c2cccc(F)c2)c1 | -0.114 |
| COc1ccc(/C=C/C(=O)N2CCCc3ccccc32)cc1 | -0.682 |
| COc1cc(NC(=O)Nc2cccc(Cl)c2)c(OC)cc1NC(=O)CN1CCCCC1 | 0.116 |
| CCOc1nc(CC)nc(NC(=O)NS(=O)(=O)c2ccccc2Cl)n1 | -0.0447 |
| CN(C)S(=O)(=O)c1cccc(NC(=O)c2cncc(Br)c2)c1 | -0.0939 |
| CCN(CC)S(=O)(=O)c1cccc(-c2nnc(SCCOc3ccccc3)o2)c1 | -0.281 |
| O=C(CSc1nccn1-c1ccccc1)Nc1ccc2c(c1)OCO2 | -0.165 |
| COc1ccccc1OCCN1C(=O)S/C(=C\c2ccco2)C1=O | 0.387 |
| CCc1cc2c(=O)n3c(nc2s1)-c1[nH]c2ccc(OC)cc2c1CC3 | -0.132 |
| CCOc1cc(/C=C/c2ccc3cccc([N+](=O)[O-])c3n2)ccc1O | -0.315 |
| Cc1ccc(CSCCNS(C)(=O)=O)cc1 | 0.343 |
| CCCCN(CC)CCNC(=O)c1cc2c(C)nc3ccccc3c2o1 | -1.67 |
| Cc1ccc(C(=O)NCC(=O)NCC(=O)OCc2ccc(Oc3ccc([N+](=O)[O-])cc3)cc2)cc1 | -0.145 |
| CCCn1c(=O)c2ccccc2n2c(SCCOc3ccccc3F)nnc12 | -0.646 |
| O=C(/C=C/c1ccco1)N1CCN(c2ccccc2)CC1 | -1.5 |

| Structure (SMILES) | z-score |
| --- | --- |
| Cn1c(N2CCCC2)nc2c1c(=O)n(Cc1cccc(F)c1)c(=O)n2C | 0.0047 |
| Cc1cc(C(=O)Nc2ccc3c(c2)OCCO3)c(C)o1 | 0.31 |
| C/C(Cn1nnc([N+](=O)[O-])n1)=N\NC(=O)c1ccccc1 | 0.221 |
| O=C(c1cccc(Cl)c1)N(Cc1cccs1)C1CCS(=O)(=O)C1 (configuration not stated) | 0.871 |
| O=C(CCS(=O)(=O)Cc1ccc(Cl)cc1)NCCCN1CCN(c2ccccc2F)CC1 | -0.0145 |
| CCSc1nnc(NC(=O)c2csc3c2CCCC3)s1 | -0.196 |
| O=C(CSc1nnc(-c2cccnc2)n1CCc1ccccc1)NCc1ccccc1 | 0.0315 |
| O=C(NCc1ccccn1)c1cc(-c2ccccc2)on1 | -0.334 |
| COc1ccccc1C(=O)NCC(=O)OCc1ccc(Br)cc1 | -0.718 |
| Cc1cccc2cc(CN(Cc3ccco3)C(=O)c3cccs3)c(=O)[nH]c12 | -0.486 |
| CCOC(=O)c1nn(-c2ccccc2C)c2nc(-c3ccc(C)cc3)c(C#N)c(=O)n12 | 0.0745 |
| CCC(C)[C@@H](C(=O)Nc1ccc(OC)c(OC)c1)N1Cc2ccccc2C1=O (some centres not stated) | 0.226 |
| CN(C)CCOCCOc1ccccc1-c1ccccc1 | -0.227 |
| COc1cccc(NC(=O)Nc2c(C)n(C)n(-c3ccccc3)c2=O)c1 | -0.172 |
| CCOC(=O)Cc1csc(NC(=O)c2c(O)c3ccccc3n(CC(C)C)c2=O)n1 | -0.46 |
| COc1ccc(NC(=O)COc2nc(N(C)C)nc(N(C)C)n2)cc1 | 0.158 |
| Cc1cc(Cl)ccc1OCC(=O)OC(C)C(=O)N(C)C (configuration not stated) | -0.157 |
| CSc1nc2ccc(NS(=O)(=O)c3ccc(Cl)s3)cc2s1 | -0.371 |
| O=C(O)Cc1cc2c(s1)CCCCC2 | 0.196 |

| Structure (SMILES) | z-score |
| --- | --- |
| CC(=O)Nc1ccc(OCC(O)CN2CCN(c3ccc(Cl)cc3)CC2)cc1 (configuration not stated) | 0.132 |
| CCc1ccc(/C=N/NC(=O)c2cc(C3CC3)nc3ccc(Br)cc23)s1 | 0.868 |
| COC(=O)c1c(NC(=O)C2c3ccccc3Oc3ccccc32)sc(C)c1C | 0.174 |
| COc1ccc(CC(=O)N2CCN(c3ccccn3)CC2)cc1 | -0.104 |
| Cc1ccc2c(c1)Sc1ccccc1CC2=O | -0.161 |
| COc1cc(S(=O)(=O)NCC2CCCO2)c(OC)cc1Cl (configuration not stated) | 0.819 |
| CC1Cc2ccccc2N1CC(=O)NC(=O)NCc1ccco1 (configuration not stated) | 0.085 |
| Cc1ccc(NC2=C([N+](=O)[O-])CS(=O)(=O)C2)cc1 | -0.072 |
| O=c1cccc(-c2ccccc2)[nH]1 | -0.0125 |
| CCOc1ccc(C(=O)NCc2ccccc2OC)cc1 | -0.206 |
| CCc1ccccc1NS(=O)(=O)c1cc(C)ccc1OC | -0.946 |
| COc1ccccc1N(CC(=O)NC1CCCCC1)C(=O)c1csnn1 | 0.73 |
| O=c1oc2c3c4c(cc2s1)CCCN4CCC3 | -0.281 |
| COc1ccccc1C(=O)NCC(c1cccnc1)N(C)C (configuration not stated) | 0.448 |
| COc1ccc(/C=C2\CCn3c2nc2cc(C(=O)O)ccc2c3=O)cc1O | -0.197 |
| CCc1ccccc1OCc1nc2ccc(S(=O)(=O)N3CCOCC3)cc2[nH]1 | -0.658 |
| COCCCn1c(C)nc2c(c1=O)c1nc3ccccc3nc1n2CCc1ccccc1 | -1.08 |
| Cc1cccc(NC(=O)c2cccnc2)c1 | -0.135 |
| CC(=O)Nc1ccccc1Nc1cc(C#N)c(C#N)cc1[N+](=O)[O-] | -0.00232 |
